Results reported in PubChem BioAssay AID1345083 (National Center for Advancing Translational Sciences (NCATS), 2018).
The whole screen tested about 94,000 compounds, of which about 6,200 (6.6%) were called active. This list was built around the results that the source calls inconclusive (neither active nor inactive); the mix of calls is not that of the screen. Calls come from the whole dose curve; as a rule, active = well fitted inhibition curve with a large enough effect; inconclusive = small, poorly fitted or top-dose-only effect; inactive = flat fitted curve, though single readings scatter. Potencies beside an inconclusive call are fits to weak or partial responses and may not hold up.

Assay: Cytotoxic Profiling in HEK 293 Cell Line of Diverse Libraries Using Quantitative High-Throughput Screening; note: nearly all actives have a fitted effect of over 60% in size
Conditions: HEK 293 viability, ATP luminescence (CellTiter-Glo), 48-72 h; activity change, negative = cytotoxicity: at 115 µM (top of the series) unless noted; series mostly up to 115 µM
Method in brief: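 ATP-coupled CellTiter-Glo luminescence served as viability read-out, recorded 10 min after reagent addition at room temperature. HEK 293 cells, 250 cells/well, had been incubated with pintool-transferred compound for 48 or 72 hr at 37 degree Celsius.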
% is set by controls: 0 for no effect and ±100 for the full control effect; potency is the fitted concentration of half-maximal effect; tags give direction and shape of the fitted curve.

SMILES | activity change, negative = cytotoxicity | Potency | outcome
O=C(c1ccccc1)N1CCCC(C(=O)N2CCC(c3nc4ccncc4[nH]3)CC2)C1 (stereo not given) | inactive: -7.18% | – | –
COc1cc(C(=O)NC2CCCc3c2[nH]c2ccccc32)cc(OC)c1OC (stereo not given) | – | inconclusive: 44.7 µM [inhibitor, partial curve] | –
Cc1ccc(-c2cn3c(n2)CO[C@@H](CNC(=O)CCC(=O)O)C3)cc1 | – | – | inactive [at 172 µM]
Cc1ccc(CN2C[C@H]3CN(Cc4ccc(C(=O)O)cc4)CCN3C2=O)cc1 | inactive: -8.84% [at 172 µM] | – | –
CC(C)(C)CC(=O)N1CCC2(CCC(=O)N(CC3CC3)CC2)CC1 | inactive: -0.462% | – | –
COc1ccc(CCNC(=O)C2CC(=O)N(c3n[nH]c4cccc(F)c34)C2)cc1 (stereo not given) | inactive: 8.78% | – | –
COc1ccc(CN2CCCC23Cc2ccccc2CNC3=O)cc1OC (stereo not given) | inactive: -18% | – | –
Cc1noc(C)c1-c1cnc(Nc2ccc(F)c(Cl)c2)c2c1CCO2 | – | active: 70.8 µM | –
COc1ccc(-c2noc(CC3CCN(C(=O)c4cc(OC)cc(OC)c4)CC3)n2)cc1 | – | active: 35.5 µM | –
COCCc1noc([C@@H]2CN(Cc3ccc(C)o3)C[C@H]2CO)n1 | inactive: 1.63% | – | –
CSc1ccc(NC(=O)c2ccc3c(c2)N(C)C2CCCCCN2C3=O)cc1 (stereo not given) | – | inconclusive: 39.8 µM [inhibitor, partial curve, poor fit] | –
COCCc1noc(C2Cc3ccccc3N2C(=O)Nc2ccc(C)c(C)c2)n1 (stereo not given) | – | inconclusive: 25.1 µM [inhibitor, full curve] | –
CNC(=O)[C@@H]1CN(S(=O)(=O)c2cnc[nH]2)C[C@H]1c1n[nH]c(C)n1 | inactive: -1.85% | – | –
COc1ccc(-c2c(C(=O)NC(C)C)nc3sccn23)cc1 | inactive: -3.7% | – | –
COc1nccnc1NC1CCN(C(=O)NCc2ccccc2)CC1 | – | inconclusive: 25.1 µM [inhibitor, partial curve] | –
COCCn1c2c(c(=O)n1-c1ccccc1)CCN(C(=O)Cc1ccc3c(c1)OCO3)C2 | inactive: -9.01% [at 172 µM] | – | –
COc1cc(C(=O)NC[C@@H]2CC[C@H]3C[C@@H]2C3(C)C)nc2ccccc12 | – | inconclusive: 35.5 µM [inhibitor, partial curve, poor fit] | –
O=C1NCc2ccccc2CC12CCCCN2Cc1ccnc2ccccc12 (stereo not given) | – | inconclusive: 50.1 µM [inhibitor, partial curve, poor fit] | –
CC#CCn1cc2c3c(cccc31)[C@H](CC(C)C)N[C@H](C(=O)NCc1ccccc1)C2 | – | active: 63.1 µM | –
Cc1oc2c(c1C(=O)N1CCCC1)CN(Cc1cccc(F)c1)CC2 | – | inconclusive: 100 µM [inhibitor, single point] | –
Cc1ccc([S+](=O)([O-])N(C)Cc2ccc(-c3ccccc3)cc2)cc1 | inactive: 0.469% | – | –
C#CCNC(=O)c1cc(-c2ccc(Cl)cc2Cl)c2cccn2n1 | inactive: -27.2% | – | –
CN1Cc2ccc(NCc3ccccc3)nc2C(C)(C(=O)NCCOc2ccccc2)C1 (stereo not given) | – | inconclusive: 70.8 µM [inhibitor, partial curve, poor fit] | –

SMILES | activity change, negative = cytotoxicity | Potency | outcome
COCc1c(C(=O)N2C[C@@H](CO)[C@H](c3ccncc3)C2)noc1C | – | – | inactive
O=C(NCCNC(=O)C1CCCC1)c1ccc(-c2cccc(C(F)(F)F)c2)cc1 | – | inconclusive: 89.1 µM [inhibitor, single point] | –
Cc1cc(CNC(=O)c2cc(C(C)C)nn2C)c2[nH]c(C)c(C)c2c1 | – | active: 39.8 µM | –
O=C(NCc1ccc(F)cc1)C1CCc2nnc(-c3ccc(Cl)cc3Cl)n21 (stereo not given) | inactive: -8.65% | – | –
COc1ccc(-c2noc([C@@H]3CCCN3C(=O)c3ccccc3OC)n2)cc1OC | – | inconclusive: 100 µM [inhibitor, single point] | –
CCc1cccc2c(C(CC(=O)NCCc3ccccc3)c3ccc(OC)c(OC)c3)c[nH]c12 (stereo not given) | – | inconclusive: 50.1 µM [inhibitor, partial curve, poor fit] | –
Cc1noc(C)c1C(=O)N1CCC2(CC1)CC(NC(=O)NC(C)C)c1ccccc12 (stereo not given) | – | – | inactive
COC1CCCN(C(=O)c2cc(-c3ccc(F)cc3)cc3ncn(C)c23)C1 (stereo not given) | – | inconclusive: 100 µM [inhibitor, partial curve, poor fit] | –
O=C(CCc1ccccc1)N1CCNc2cnc(Nc3ccc(-n4ccnc4)cc3)nc2C1 | – | inconclusive: 50.1 µM [inhibitor, partial curve, poor fit] | –
OCc1cccc(-c2cc3c(cn2)CN(CCc2ccccc2)CCN3)c1 | – | inconclusive: 100 µM [inhibitor, partial curve, poor fit] | –
C[S+](=O)([O-])NC1CCCN(Cc2ccc(-c3cncnc3)cc2)C1 (stereo not given) | – | inconclusive: 44.7 µM [inhibitor, partial curve] | –
O=C(c1ccccc1)N1CCn2c(nn(-c3ccc(F)cc3)c2=O)C1 | – | active: 100 µM | –
COc1ccc(CN2CCC3(CC2)OC(=O)N(Cc2ccccc2C#N)C3(C)c2ccccc2)cc1O (stereo not given) | – | active: 44.7 µM | –
COCCc1noc(C2CNC2)n1 | – | active: 8.91 µM | –
CN(Cc1cc(-c2ccccc2)on1)C(=O)c1cn(Cc2ccc(F)cc2)nn1 | – | inconclusive: 79.4 µM [inhibitor, single point] | –
O=C(NCc1ccccc1F)C1CC(c2ccccc2)CN(C(=O)COc2ccccc2)C1 (stereo not given) | – | inconclusive: 50.1 µM [inhibitor, partial curve, poor fit] | –
CCCCN(Cc1ccccc1)Cc1nc(-c2ccc(C(=O)OC)cc2)no1 | inactive: -11% | – | –
COCC(=O)N[C@H]1C[C@@H](Cc2cc(-c3ccc(F)cc3)on2)C1(C)C | – | inconclusive: 28.2 µM [inhibitor, partial curve, poor fit] | –
Cc1ccc(NC(=O)CN2C(=O)NC3(CCCCC3)C2=O)cc1C | – | inconclusive: 50.1 µM [inhibitor, partial curve, poor fit] | –
CC(C)n1cc(CN(C)C(=O)c2cc(COc3ccccc3)on2)cn1 | – | inconclusive: 70.8 µM [inhibitor, partial curve] | –
CC(=O)N[C@@H]1C[C@H](Cc2ccccc2)O[C@H](c2c(C)nn(C(C)(C)C)c2C)C1 | – | – | inactive
CN(Cc1cccc2cnccc12)C(=O)c1cc(COc2ccc(F)cc2F)on1 | – | inconclusive: 39.8 µM [inhibitor, full curve, poor fit] | –
